From patent US20200347143A1 (GLENMARK PHARMACEUTICALS S A, published 2020)

T1: human OX40 on cells (human, UniProt P43489 29-277)
T1 sequence (looked up): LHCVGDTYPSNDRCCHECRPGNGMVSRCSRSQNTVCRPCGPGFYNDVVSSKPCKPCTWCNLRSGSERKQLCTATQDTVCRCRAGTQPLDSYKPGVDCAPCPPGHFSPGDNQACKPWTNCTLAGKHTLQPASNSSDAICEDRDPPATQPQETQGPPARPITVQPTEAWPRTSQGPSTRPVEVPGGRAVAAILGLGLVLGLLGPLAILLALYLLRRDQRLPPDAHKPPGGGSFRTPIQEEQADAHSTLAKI


biological target: T1, human OX40 on cells; assay: cell-based or functional assay

% donor responder (>2), SEB assay, IL-2 release [%]	Mean, normalized IL-2 release, SEB assay	Binder
100	11.9	7H11_1949_8 (bispecific antibody) heavy: not shown light: DIVMTQSPDSLAVSLGERATINCKSSQSLLNSGNQKNYLAWYQQKPGQPPKLLIYGASTRESGVPDRFSGSGSGTDFTLTISSLQAEDVAVYYCQNDHSYPYTFGQGTKLEIKRTVAAPSVFIFPPSDEQLKSGTASVVCLLNNFYPREAKVQWKVDNALQSGNSQESVTEQDSKDSTYSLSSTLTLSKADYEKHKVYACEVTHQGLSSPVTKSFNRGEC
8	1.05	Tetra-17 (antibody, human IgG1, kappa) heavy: QVQLVQSGAEVKKPGASVKVSCKASGYTFTRYYMHWVRQAPGQGLEWMGWIYPGEGSTKYAQKFQGRVTMTRDTSISTAYMELSRLRSDDTAVYYCAREYGNYDYWGQGTLVTVSSASTKGPSVFPLAPSSKSTSGGTAALGCLVKDYFPEPVTVSWNSGALTSGVHTFPAVLQSSGLYSLSSVVTVPSSSLGTQTYICNVNHKPSNTKVDKKV[sequence of human IgG1 Fc with changes omitted]GGGGTQVQLVQSGAEVKKPGASVKVSCKASGYTFTRYYMHWVRQAPGQGLEWMGWIYPGEGSTKYAQKFQGRVTMTRDTSISTAYMELSRLRSDDTAVYYCAREYGNYDYWGQGTLVTVSSASTKGPSVFPLAPSSKSTSGGTAALGCLVKDYFPEPVTVSWNSGALTSGVHTFPAVLQSSGLYSLSSVVTVPSSSLGTQTYICNVNHKPSNTKVDKKVEPKSC light: DIVMTQSPDSLAVSLGERATINCKSSQSLLNSGNQKNYLAWYQQKPGQPPKLLIYGASTRESGVPDRFSGSGSGTDFTLTISSLQAEDVAVYYCQNDHSYPYTFGQGTKLEIKRTVAAPSVFIFPPSDEQLKSGTASVVCLLNNFYPREAKVQWKVDNALQSGNSQESVTEQDSKDSTYSLSSTLTLSKADYEKHKVYACEVTHQGLSSPVTKSFNRGEC
9	0.84	106-222_1949 (bispecific antibody) heavy: not shown light: DIQMTQSPSSLSASVGDRVTITCKASQDVSTAVAWYQQKPGKAPKLLIYSASYLYTGVPSRFSGSGSGTDFTFTISSLQPEDIATYYCQQHYSTPRTFGQGTKLEIKRTVAAPSVFIFPPSDEQLKSGTASVVCLLNNFYPREAKVQWKVDNALQSGNSQESVTEQDSKDSTYSLSSTLTLSKADYEKHKVYACEVTHQGLSSPVTKSFNRGEC
9	1.3	106-222_2H6_8 (bispecific antibody, human IgG1, kappa) heavy: QVQLVQSGSELKKPGASVKVSCKASGYTFTDYSMHWVRQAPGQGLKWMGWINTETGEPTYADDFKGRFVFSLDTSVSTAYLQISSLKAEDTAVYYCANPYYDYVSYYAMDYWGQGTTVTVSSASTKGPSVFPLAPSSKSTSGGTAALGCLVKDYFPEPVTVSWNSGALTSGVHTFPAVLQSSGLYSLSSVVTVPSSSLGTQTYICNVNHKPSNTKVDKKV[sequence of human IgG1 Fc with changes omitted]GGGGTEVQLVESGGGLVQPGGSLRLSCAVSGYSITSDYAWNWIRQAPGKCLEWMGYISYSGSTAYNPSLKSRITISRDTSKNTFYLQMNSLRAEDTAVYYCARGPYNYLAYWGQGTLVTVSSGGGGSGGGGSGGGGSDIQLTQSPSSLSASVGDRVTITCRASESVDNYGISFMNWFQQKPGKAPKLLIYAASNQKSGVPSRFSGSGSGTDFTLTISSLQPEDFATYFCQQSKEVPLTFGCGTKVEIL light: DIQMTQSPSSLSASVGDRVTITCKASQDVSTAVAWYQQKPGKAPKLLIYSASYLYTGVPSRFSGSGSGTDFTFTISSLQPEDIATYYCQQHYSTPRTFGQGTKLEIKRTVAAPSVFIFPPSDEQLKSGTASVVCLLNNFYPREAKVQWKVDNALQSGNSQESVTEQDSKDSTYSLSSTLTLSKADYEKHKVYACEVTHQGLSSPVTKSFNRGEC
0	0.51	106-222_hzG3v9 (bispecific antibody, human IgG1, kappa) heavy: QVQLVQSGSELKKPGASVKVSCKASGYTFTDYSMHWVRQAPGQGLKWMGWINTETGEPTYADDFKGRFVFSLDTSVSTAYLQISSLKAEDTAVYYCANPYYDYVSYYAMDYWGQGTTVTVSSASTKGPSVFPLAPSSKSTSGGTAALGCLVKDYFPEPVTVSWNSGALTSGVHTFPAVLQSSGLYSLSSVVTVPSSSLGTQTYICNVNHKPSNTKVDKKV[sequence of human IgG1 Fc with changes omitted]GGGGTEVQLLESGGGEVQPGGSLRLSCAASGFTFSDAFMYWVRQAPGKEREWVSSISNRGLKTAYAESVKGRFTISRDNAKNTLYLQMSSLRAEDTAVYYCVEGDWNLGPRGQGTLVTVKP light: DIQMTQSPSSLSASVGDRVTITCKASQDVSTAVAWYQQKPGKAPKLLIYSASYLYTGVPSRFSGSGSGTDFTFTISSLQPEDIATYYCQQHYSTPRTFGQGTKLEIKRTVAAPSVFIFPPSDEQLKSGTASVVCLLNNFYPREAKVQWKVDNALQSGNSQESVTEQDSKDSTYSLSSTLTLSKADYEKHKVYACEVTHQGLSSPVTKSFNRGEC

The remaining lines, values behind:

Binder	% donor responder (>2), SEB assay, IL-2 release [%]	Mean, normalized IL-2 release, SEB assay
Tetra-13 (bispecific antibody, human IgG1, kappa) heavy: QVQLVQSGAEVKKPGASVKVSCKASGYTFTRYYMHWVRQAPGQGLEWMGWIYPGEGSTKYAQKFQGRVTMTRDTSISTAYMELSRLRSDDTAVYYCAREYGNYDYWGQGTLVTVSS[sequence of human IgG1 constant region omitted]GGGTEVQLVESGGGLVQPGGSLRLSCAVSGYSITSDYAWNWIRQAPGKCLEWMGYISYSGSTAYNPSLKSRITISRDTSKNTFYLQMNSLRAEDTAVYYCARGPYNYLAYWGQGTLVTVSSGGGGSGGGGSGGGGSDIQLTQSPSSLSASVGDRVTITCRASESVDNYGISFMNWFQQKPGKAPKLLIYAASNQKSGVPSRFSGSGSGTDFTLTISSLQPEDFATYFCQQSKEVPLTFGCGTKVEIL light: DIVMTQSPDSLAVSLGERATINCKSSQSLLNSGNQKNYLAWYQQKPGQPPKLLIYGASTRESGVPDRFSGSGSGTDFTLTISSLQAEDVAVYYCQNDHSYPYTFGQGTKLEIKRTVAAPSVFIFPPSDEQLKSGTASVVCLLNNFYPREAKVQWKVDNALQSGNSQESVTEQDSKDSTYSLSSTLTLSKADYEKHKVYACEVTHQGLSSPVTKSFNRGEC	64	2.6
Tetra-16 (antibody, human IgG1, kappa) heavy: QVQLVQSGAEVKKPGASVKVSCKASGYTFTRYYMHWVRQAPGQGLEWMGWIYPGEGSTKYAQKFQGRVTMTRDTSISTAYMELSRLRSDDTAVYYCAREYGNYDYWGQGTLVTVSSASTKGPSVFPLAPSSKSTSGGTAALGCLVKDYFPEPVTVSWNSGALTSGVHTFPAVLQSSGLYSLSSVVTVPSSSLGTQTYICNVNHKPSNTKVDKKV[sequence of human IgG1 Fc with changes omitted]GGGGTQVQLVQSGAEVKKPGASVKVSCKASGYTFTRYYMHWVRQAPGQCLEWMGWIYPGEGSTKYAQKFQGRVTMTRDTSISTAYMELSRLRSDDTAVYYCAREYGNYDYWGQGTLVTVSSGGGGSGGGGSGGGGSDIVMTQSPDSLAVSLGERATINCKSSQSLLNSGNQKNYLAWYQQKPGQPPKLLIYGASTRESGVPDRFSGSGSGTDFTLTISSLQAEDVAVYYCQNDHSYPYTFGCGTKLEIL light: DIVMTQSPDSLAVSLGERATINCKSSQSLLNSGNQKNYLAWYQQKPGQPPKLLIYGASTRESGVPDRFSGSGSGTDFTLTISSLQAEDVAVYYCQNDHSYPYTFGQGTKLEIKRTVAAPSVFIFPPSDEQLKSGTASVVCLLNNFYPREAKVQWKVDNALQSGNSQESVTEQDSKDSTYSLSSTLTLSKADYEKHKVYACEVTHQGLSSPVTKSFNRGEC	33	1.72
7H11_hzG3v9_8 (bispecific antibody, human IgG1, kappa) heavy: QVQLVQSGAEVKKPGASVKVSCKASGYTFTRYYMHWVRQAPGQGLEWMGWIYPGEGSTKYAQKFQGRVTMTRDTSISTAYMELSRLRSDDTAVYYCAREYGNYDYWGQGTLVTVSSASTKGPSVFPLAPSSKSTSGGTAALGCLVKDYFPEPVTVSWNSGALTSGVHTFPAVLQSSGLYSLSSVVTVPSSSLGTQTYICNVNHKPSNTKVDKKV[sequence of human IgG1 Fc with changes omitted]GGGGTEVQLLESGGGEVQPGGSLRLSCAASGFTFSDAFMYWVRQAPGKEREWVSSISNRGLKTAYAESVKGRFTISRDNAKNTLYLQMSSLRAEDTAVYYCVEGDWNLGPRGQGTLVTVKP light: DIVMTQSPDSLAVSLGERATINCKSSQSLLNSGNQKNYLAWYQQKPGQPPKLLIYGASTRESGVPDRFSGSGSGTDFTLTISSLQAEDVAVYYCQNDHSYPYTFGQGTKLEIKRTVAAPSVFIFPPSDEQLKSGTASVVCLLNNFYPREAKVQWKVDNALQSGNSQESVTEQDSKDSTYSLSSTLTLSKADYEKHKVYACEVTHQGLSSPVTKSFNRGEC	100	30.3
7H11_9B12_8 (bispecific antibody, human IgG1, kappa) heavy: QVQLVQSGAEVKKPGASVKVSCKASGYTFTRYYMHWVRQAPGQGLEWMGWIYPGEGSTKYAQKFQGRVTMTRDTSISTAYMELSRLRSDDTAVYYCAREYGNYDYWGQGTLVTVSSASTKGPSVFPLAPSSKSTSGGTAALGCLVKDYFPEPVTVSWNSGALTSGVHTFPAVLQSSGLYSLSSVVTVPSSSLGTQTYICNVNHKPSNTKVDKKV[sequence of human IgG1 Fc with changes omitted]GGGGTQVQLQESGPGLVKPSQTLSLTCAVYGGSFSSGYWNWIRKHPGKCLEYIGYISYNGITYHNPSLKSRITINRDTSKNQYSLQLNSVTPEDTAVYYCARYKYDYDGGHAMDYWGQGTLVTVSSGGGGSGGGGSGGGGSDIQMTQSPSSLSASVGDRVTITCRASQDISNYLNWYQQKPGKAPKLLIYYTSKLHSGVPSRFSGSGSGTDYTLTISSLQPEDFATYYCQQGSALPWTFGCGTKVEIK light: DIVMTQSPDSLAVSLGERATINCKSSQSLLNSGNQKNYLAWYQQKPGQPPKLLIYGASTRESGVPDRFSGSGSGTDFTLTISSLQAEDVAVYYCQNDHSYPYTFGQGTKLEIKRTVAAPSVFIFPPSDEQLKSGTASVVCLLNNFYPREAKVQWKVDNALQSGNSQESVTEQDSKDSTYSLSSTLTLSKADYEKHKVYACEVTHQGLSSPVTKSFNRGEC	73	6.47
9B12_1949 (bispecific antibody) heavy: not shown light: DIQMTQSPSSLSASVGDRVTITCRASQDISNYLNWYQQKPGKAPKLLIYYTSKLHSGVPSRFSGSGSGTDYTLTISSLQPEDFATYYCQQGSALPWTFGQGTKVEIKRTVAAPSVFIFPPSDEQLKSGTASVVCLLNNFYPREAKVQWKVDNALQSGNSQESVTEQDSKDSTYSLSSTLTLSKADYEKHKVYACEVTHQGLSSPVTKSFNRGEC	18	1.6
